Source: US20220340685A1, “COMBINATION THERAPY WITH ENTPD2 AND CD73 ANTIBODIES” (Novartis AG, priority 2019, published 2022)

System: B16LM3 clone B5 tumors
Experiment: Plasma and tumor cytokines in human ENTPD2 engineered B16LM3 clone B5 model
Format: in vivo, C57BL/6 mice
Conditions: 24 hr after 10 mg/kg, vs Isotype Control
Protocol: In order to understand immediate impact of ENTPD2 blockade from immune pathway engagement perspective, plasma and B16LM3 clone B5 tumors (mean tumor volume ˜170 mm^3) were collected from C57BL/6 mice 24 hr after treatment with anti-human ENTPD2 mAb1 or Isotype Control at 10 mg/kg.
Briefly, plasma was isolated via collection of blood into Microvette MV-H-300 Capillary Plasma Lithium Heparin Blood Collection tube (Sai Infusion technologies, Lake Villa, Ill.), that were spun down at 1000-2000 ×g for 10 min. Plasma samples were stored at −80° C. until use. Tumor samples were surgically excised and immediately frozen in liquid nitrogen. Tumor tissue was then homogenized in T-PER Tissue Protein Extraction Reagent (ThermoFisher, Waltham, Mass.) using the TissueLyser (Qiagen, Germany) instrument. Tumor lysate samples were spun down at 11,000 rpm for 15 min and supernatants were collected for protein concentration analysis using Pierce BCA Protein Assay Kit (ThermoFisher, Waltham, Mass.). 200 μg of protein or 25 μl of undiluted plasma was used for cytokine analysis using the V-PLEX Mouse Cytokine 29-Plex Kit (MSD, Rockville, Md.) according to manufacturer's recommendations.

B1: mAb1: humanized anti-human ENTPD2 human IgG1 antibody derived from mAb17; heavy chain SEQ ID NO: 12, light chain SEQ ID NO: 23 (antibody)
heavy: EVQLVQSGAEVKKPGESLKISCKASGYTFTDYNMDWVRQMPGKGLEWMGDINPKYDISTYNQQFKGQVTISADKSIRTAYLQWSSLKASDTAMYYCARRGFFLYYGINYYYFDVWGQGTLVTVSSASTKGPSVFPLAPSSKSTSGGTAALGCLVKDYFPEPVTVSWNSGALTSGVHTFPAVLQSSGLYSLSSVVTVPSSSLGTQTYICNVNHKPSNTKVDKRV[left out - human IgG1 Fc]
light: DIQLTQSPSSLSASVGDRVTITCSASSSVSYIHWFQQKPGKAPKLLIYSTSNLASGVPSRFSGSGSGTFFTLTISSLQPEDFATYFCHQWSSYPWTFGQGTKVEIKRTVAAPSVFIFPPSDEQLKSGTASVVCLLNNFYPREAKVQWKVDNALQSGNSQESVTEQDSKDSTYSLSSTLTLSKADYEKHKVYACEVTHQGLSSPVTKSFNRGEC
decrease of IL-1β in plasma: approximately 2 fold | increase in MCP1 at the tumor site: approximately 2 fold
